{"source": "paper PMC10726135", "note": "The other results are listed elsewhere or left out. At the low end of the ranking the order means little. The protein was read in a cell extract, so binding may be indirect.", "data": [{"target": "T1, HNF4alpha2 (COS-7 nuclear extract) (UniProt P41235)", "T1 sequence": "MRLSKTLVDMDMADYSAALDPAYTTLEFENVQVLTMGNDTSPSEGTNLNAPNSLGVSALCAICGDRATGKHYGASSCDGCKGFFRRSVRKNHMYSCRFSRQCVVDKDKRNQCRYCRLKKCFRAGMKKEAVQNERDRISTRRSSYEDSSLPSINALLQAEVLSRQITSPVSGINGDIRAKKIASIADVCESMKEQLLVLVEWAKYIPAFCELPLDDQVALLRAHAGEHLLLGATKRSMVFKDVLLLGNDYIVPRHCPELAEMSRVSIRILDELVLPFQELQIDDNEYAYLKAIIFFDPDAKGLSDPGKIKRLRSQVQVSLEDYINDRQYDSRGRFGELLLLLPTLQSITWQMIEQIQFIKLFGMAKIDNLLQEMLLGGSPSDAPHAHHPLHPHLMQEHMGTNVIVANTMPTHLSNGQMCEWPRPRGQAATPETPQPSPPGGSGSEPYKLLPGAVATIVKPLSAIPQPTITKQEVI", "experiment": "protein-binding microarray", "settings": "COS-7 nuclear extract on double-stranded Agilent 4x180k PBM; binding buffer, salt, pH and temperature not given; high values mean tight binding; double strand, one strand shown; sequences stand for … in …GCCTAGGGAGATTAGAGTATCGGTCGA", "values": [{"sequence": "AAAGAGTACACAAAGGTATCAGGGCTCAGG", "binding signal (log2 normalized intensity)": -1.08}, {"sequence": "GACAAAGTACAGAGCAGGTGCTCGGTGAGT", "binding signal (log2 normalized intensity)": -1.25}, {"sequence": "TAACTCTCCAAATTCCAGGATCCAAGATCC", "binding signal (log2 normalized intensity)": -1.09}, {"sequence": "TGAGACTGCCTCAAACAGCTTCGCCTCCTC", "binding signal (log2 normalized intensity)": -1.11}, {"sequence": "CTTCAAAGGAGTGGAGGAAGGAAGAAGTGT", "binding signal (log2 normalized intensity)": 0.537}, {"sequence": "TCCTAGTCTTTAGAGTAACCATTCTTTCTG", "binding signal (log2 normalized intensity)": 0.183}, {"sequence": "CCACAAGGGGGGAGCACCTCCCAACGTGCC", "binding signal (log2 normalized intensity)": -1.22}, {"sequence": "GTTTAGTGAGCTGTCTAATTTTGCACAGCC", "binding signal (log2 normalized intensity)": -1.22}, {"sequence": "GCAGAAGGTCAGGTGAATCAACGATAAGGG", "binding signal (log2 normalized intensity)": -1.18}, {"sequence": "GATCCTCCCACTTCAGCCTCCCGAGTAGTT", "binding signal (log2 normalized intensity)": 2.81}, {"sequence": "CTAGACCCACATCCTGTCAGACCAAGGCTG", "binding signal (log2 normalized intensity)": -1.07}, {"sequence": "AAGTGGCTCACCCAAGTCACACAGTTAGAA", "binding signal (log2 normalized intensity)": -0.782}, {"sequence": "CAAAGTGGAATTTGAACCTACACCTATGTG", "binding signal (log2 normalized intensity)": 3.62}, {"sequence": "AAACTTCCACTAACTTGAGTGTGCACCCTG", "binding signal (log2 normalized intensity)": 1.65}, {"sequence": "ACCAGAGGGAAGAGATCATGGCCGATCGAC", "binding signal (log2 normalized intensity)": -1.19}, {"sequence": "TTGAAGCAGAGTGTCCCATATCACATTTTA", "binding signal (log2 normalized intensity)": 0.955}, {"sequence": "CCACAGCCCAACTCGGAGGACTGAGCCCGC", "binding signal (log2 normalized intensity)": -1.07}, {"sequence": "TATCTTCAAAGCCAGCAACGGTGAGTCAAG", "binding signal (log2 normalized intensity)": 0.983}, {"sequence": "TGATCTACAGTCAGAGGCCTGAAGGCCCCC", "binding signal (log2 normalized intensity)": 1.63}, {"sequence": "GAGAAAGGGGCTTAGGGAGGGTGAAGGTCA", "binding signal (log2 normalized intensity)": 2.39}, {"sequence": "CCCCAGGCTGAGCGTGAACACCGGCCCCCT", "binding signal (log2 normalized intensity)": 4.11}, {"sequence": "GACTGGAATGTCAAAGGGACAGCACTGGCA", "binding signal (log2 normalized intensity)": -1.1}, {"sequence": "TTTGTCCTGGCACAACTGGATGGTGTTTGA", "binding signal (log2 normalized intensity)": 1.32}, {"sequence": "CCTAGCTGACTGCGTCAGGCAGTTGGAATT", "binding signal (log2 normalized intensity)": 0.515}, {"sequence": "TGGTGCTATCTTTGCTCACTGTAACCTTTG", "binding signal (log2 normalized intensity)": 3.78}, {"sequence": "GTGAATGGATGGATCCGCAGCCAGGGCTGT", "binding signal (log2 normalized intensity)": -1.22}, {"sequence": "TTAGTCTTATCTGAGGTGCCCTTACATTTT", "binding signal (log2 normalized intensity)": 1.69}, {"sequence": "CCTTTGCCTCCACCTTCTCTCCCACTTATC", "binding signal (log2 normalized intensity)": 1.77}, {"sequence": "ACTTCAAAGGGTGTTGTGACTACCTGGTTA", "binding signal (log2 normalized intensity)": 0.524}, {"sequence": "CGACTACAACAGCCTTGCAGATAAGCCACG", "binding signal (log2 normalized intensity)": -1.26}, {"sequence": "CAGGACCATCTCGTCCCGTCAATCTGCAGC", "binding signal (log2 normalized intensity)": -0.854}, {"sequence": "TGGATTCCTCCAGCCCTCCTCTCTGTAGTC", "binding signal (log2 normalized intensity)": 1.04}, {"sequence": "TCTCCCACAAGGGCAGCCCTGTTTAGGAGG", "binding signal (log2 normalized intensity)": -1.2}, {"sequence": "GAGGCCAGTCTTACTGCTTTCTATTCAGAC", "binding signal (log2 normalized intensity)": -1.18}, {"sequence": "TGTTCTGTTTAACAGAGATTTGCAGCTCAA", "binding signal (log2 normalized intensity)": -1.17}, {"sequence": "TAAATGACATAGTGACATTTACAGATAAAG", "binding signal (log2 normalized intensity)": -0.989}, {"sequence": "ACAGAACAGATGGTGTTAAATCCTATCCTA", "binding signal (log2 normalized intensity)": -1.12}, {"sequence": "GCCACCTGCTGGCTGAGCATCACCAGTGCA", "binding signal (log2 normalized intensity)": -1.15}, {"sequence": "TCCTGAGTGATTGTAGTGTCATTGTTATTT", "binding signal (log2 normalized intensity)": 2.06}, {"sequence": "CTCCCTCCCTCCCCCATTAGAGGCACACTC", "binding signal (log2 normalized intensity)": 4.34}, {"sequence": "AAGGAAATATCTTCCCATAAAACCTAGACA", "binding signal (log2 normalized intensity)": -0.978}, {"sequence": "TGTTCACAAGGAATTGGAATTGGGAGGACA", "binding signal (log2 normalized intensity)": 0.916}, {"sequence": "GGTGAGTGGGGAAAGAGCCCCTTTGTCCAT", "binding signal (log2 normalized intensity)": 0.56}, {"sequence": "TCGGTCACCCACACAAAAATGTGCCTTCCC", "binding signal (log2 normalized intensity)": -1.09}, {"sequence": "CATGGGAGATAGAGCAGTGGAAGACAAATG", "binding signal (log2 normalized intensity)": -1.08}, {"sequence": "GAAGGCCTGTTAAAAACACGAGCTATTGCG", "binding signal (log2 normalized intensity)": -1.13}, {"sequence": "TGAGGTGGCTGCAGAGTGGGAGGCCAAGAG", "binding signal (log2 normalized intensity)": -1.22}, {"sequence": "ATAAAACTGGAATAAAGCAGTCCCTACTTC", "binding signal (log2 normalized intensity)": -1.18}, {"sequence": "CCGGGGCGCCCTTTGTTCTCCGGGTTCTGC", "binding signal (log2 normalized intensity)": 2.02}, {"sequence": "TGTAGGTAAGCACAAAGTACAGCTTTTTGT", "binding signal (log2 normalized intensity)": 1.13}, {"sequence": "TGAATTAGTACCTCAATGCTATCTCCCAGT", "binding signal (log2 normalized intensity)": 0.447}, {"sequence": "TTGTCAGATGAGGAAATTGAGGCTTAGCAG", "binding signal (log2 normalized intensity)": -0.906}, {"sequence": "CGCGAGAGCCGAAGTCTCTCGCCGAGGCCC", "binding signal (log2 normalized intensity)": -1.15}, {"sequence": "GATATTTAACCTTTGATCTGTAAGCTCTCT", "binding signal (log2 normalized intensity)": 4.61}, {"sequence": "AGAAAGTAGAACGGTGGTTGTCAGAGACTG", "binding signal (log2 normalized intensity)": -0.734}, {"sequence": "TTAACACAGGACAAATCAAGTGAAATGCCA", "binding signal (log2 normalized intensity)": -1.04}, {"sequence": "AGTGATAAGCAGAGGATGGGAATTAGGGAG", "binding signal (log2 normalized intensity)": -1.06}, {"sequence": "TCATAACACTTGTATGACCTTTGTTTTATT", "binding signal (log2 normalized intensity)": 4.3}, {"sequence": "CGGGCCCCAAGTGGCCATCTTCACGCAATA", "binding signal (log2 normalized intensity)": -1.22}, {"sequence": "CTCGGGGATGGCATGTCTCTGGTCGGGGAG", "binding signal (log2 normalized intensity)": -1.1}, {"sequence": "AAAACCCATGGACCTGACACCCGCTGGCGC", "binding signal (log2 normalized intensity)": -1.13}, {"sequence": "TAAGGTTCAAAGGGAAAAAATAATCAGCTT", "binding signal (log2 normalized intensity)": -0.458}, {"sequence": "AAAGGCCACCACAAACCCTTCATCCAGCTG", "binding signal (log2 normalized intensity)": -1.22}, {"sequence": "AAGCTATTCACTTTTTGGCCTTTGGCTGTT", "binding signal (log2 normalized intensity)": 2.7}, {"sequence": "GATGATCATGGCTCACTGCACCTTGACCTC", "binding signal (log2 normalized intensity)": 7.34}, {"sequence": "CTATTCAGGTATTTGCTCTGTGATAGCCTT", "binding signal (log2 normalized intensity)": 1.51}, {"sequence": "GGTGGACTTTCCCCCCTCACACTTTGGCTA", "binding signal (log2 normalized intensity)": 3.71}, {"sequence": "CGATGTATACAGTATCTATAGTTATTGCAT", "binding signal (log2 normalized intensity)": 0.979}, {"sequence": "CTGGTCTTTGTCCTGGGAGAACAAACCTTA", "binding signal (log2 normalized intensity)": 1.28}, {"sequence": "ACTTTGGCGTGCTGTGTACTTTGAACTGAA", "binding signal (log2 normalized intensity)": 6.08}, {"sequence": "TCCAACCTTTGCTCACTTGGGGGTGGGGTG", "binding signal (log2 normalized intensity)": 1.99}, {"sequence": "ACAACCAGGGAGATGTGAGCGACCTTTGCA", "binding signal (log2 normalized intensity)": 3.89}, {"sequence": "AAATCCCGAGCCAGAGCCAAAGGGCATATT", "binding signal (log2 normalized intensity)": 1.43}, {"sequence": "CCCATCAGCTGGGCTTGTTCAAATAACAGC", "binding signal (log2 normalized intensity)": -1.11}, {"sequence": "ACCTTTGTCCTCATTGAGCCCTCCCCTTGT", "binding signal (log2 normalized intensity)": 4.33}, {"sequence": "CTATGCACACGTTCAGTTAGAGGGCTCAAT", "binding signal (log2 normalized intensity)": -0.854}, {"sequence": "ACAGGTGGACAAACAGGCTGAACATGACTG", "binding signal (log2 normalized intensity)": -1.13}, {"sequence": "GCAACAGAAAACTCAACTTCTAACTTCCGG", "binding signal (log2 normalized intensity)": -1.26}, {"sequence": "CCTAAAAATTATCTTTATCTTTTCACTTTT", "binding signal (log2 normalized intensity)": 1.22}, {"sequence": "TAATTTTCAACCTCTTTCTCTTTGATGTAA", "binding signal (log2 normalized intensity)": 1.57}, {"sequence": "GACCTTTGATATTTGTGCCTAGTGGAAGGT", "binding signal (log2 normalized intensity)": 4.06}, {"sequence": "TTATCAGCAGTGACTTGAGAGGCCAGTTTC", "binding signal (log2 normalized intensity)": 0.527}, {"sequence": "CTCCTCAACCTCTCCAATGCTATGCTTTTA", "binding signal (log2 normalized intensity)": -1.02}, {"sequence": "CATTTGCTCCCAGTGCACACAGACTTTTGT", "binding signal (log2 normalized intensity)": 0.601}, {"sequence": "GGATGTGGGGTATCAGGTGGTGATGGTGGG", "binding signal (log2 normalized intensity)": 1.56}, {"sequence": "GTGCAGTATCCCAGGGACTTACTCAACTAG", "binding signal (log2 normalized intensity)": -1.1}, {"sequence": "ACTTTGGGGAAATGACCTTTGTCCAGCTGT", "binding signal (log2 normalized intensity)": 6.74}, {"sequence": "GAAAATCAAAGACTCAGATGAGTTTCTTCA", "binding signal (log2 normalized intensity)": -0.976}, {"sequence": "TGCAGTAAATGGACAGACACACCCTTCAGA", "binding signal (log2 normalized intensity)": -1.04}, {"sequence": "AGCTGGCACAGCAGATGCTGGGCAAAGGGC", "binding signal (log2 normalized intensity)": 3.17}, {"sequence": "TTCCCCAGTGAGGATGTGTGCTCGAGGTGG", "binding signal (log2 normalized intensity)": 1.38}, {"sequence": "CTTCCCCAAACTAGGAGAGTGGACTCACAG", "binding signal (log2 normalized intensity)": 2.14}, {"sequence": "CTGAGTTACAGATAAGCAGAAGGTCAGGTG", "binding signal (log2 normalized intensity)": 1.53}]}]}
